Results: PMC4575918, “Regulation of p53 oligomerization by Ras superfamily protein RBEL1A” (Genes & Cancer, 2015)

Target: the molecule itself
Assay: cross-linking; in-cell p53 oligomerization assay: lysates of transfected, knock-down or UV-exposed cells (HEK293T, MCF12A, MCF7; MG132 before harvest) cross-linked with glutaraldehyde 0.005%; SDS gel, anti-p53 (FL393) or anti-myc blot

B1: C-terminus of p53 corresponding to […] (His-tagged copy and Myc-tagged copy) (domain or fragment)
chain: not shown
notes: Two separate constructs with the same limits: one copy has only the His-tag, the other only the Myc-tag; no chain has both; source: HEK293T, transfected, in lysate; not shown: His-tag, C-terminal, kept; Myc-tag, C-terminal, kept
stoichiometry N: 4
